# Reference: the supplement of paper PMC9135407
# “And” between values parts separate entries of the source, which are not always exact repeats. Identical values can stand only once. Counter-ions that a name gives are not always drawn. The campaign covered roughly 5,800 compounds. About 620 (11%) showed activity.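 The calls were made as follows: active = score above a cut-off or among the top three wells of a plate; in these data no inactive exceeds 0.85.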 The entries are a selection whose mix differs from that of the whole data set.
# Tested on: primary human hepatic stellate cells (donor 1)
# Assay: scaled lipid accumulation score (0 = DMSO-like, 1 = nortriptyline-like); higher = stronger HSC inactivation (lipid re-accumulation), active = hit call of the paper
# Conditions: 48 h
# Protocol: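 Primary lipid accumulation screen in primary human hepatic stellate cell myofibroblasts (donor 1, passage 8) in 384-well plates. 100 nL of library compound was pin-transferred into 30 µL medium in duplicate, and cells were treated for 48 h. The 'Scaled' score combines distance from plate baseline, toxicity and reproducibility penalties, and is normalised to nortriptyline (positive) and DMSO (negative) controls on each plate. A hit is defined as scaled >0.85 or among the top 3 wells per plate.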
# [1] = library stock concentration: 5.8 mM
# [2] = library stock concentration: 10 mM
# [3] = library stock concentration: 80 uM
# [4] = library stock concentration: 400 uM
# [5] = library stock concentration: 2 mM
# [6] = library stock concentration: 3.33 mM
# [7] = library stock concentration: 1 mM
# [8] = library stock concentration: 4 mM
smiles,measurement,setting,value
OC[C@H]1O[C@@H](O[C@@H]2[C@@H](CO)OC(O)(CO)[C@H]2O)[C@H](O)[C@@H](O)[C@H]1O (mixture of isomers) [Lactulose],scaled lipid accumulation score,[1],inactive: 0.02
same,scaled lipid accumulation score,[2],inactive: 0.096
Cc1cc(Nc2nc(N[C@@H](C)c3ncc(F)cn3)ncc2Cl)[nH]n1,scaled lipid accumulation score,[3],inactive: 0.018
same,scaled lipid accumulation score,[4],inactive: ≤ -0.009
same,scaled lipid accumulation score,[5],inactive: ≤ -0.009
same,scaled lipid accumulation score,[6],inactive: ≤ 0
same,scaled lipid accumulation score,[2],inactive: ≤ 0 and inactive: ≤ -0.001
O=C(O)c1cc(O)c2ccc(Cl)cc2n1 [7-Chlorokynurenic acid],scaled lipid accumulation score,[2],inactive: 0.023
NCCS(=O)O [Hypotaurine],scaled lipid accumulation score,[2],inactive: ≤ -0.07
COC[C@H](NC(=O)c1cnc(C)s1)C(=O)N[C@@H](COC)C(=O)N[C@@H](Cc1ccccc1)C(=O)[C@@]1(C)CO1 [Oprozomib (ONX 0912)],scaled lipid accumulation score,[6],inactive: 0.798
same,scaled lipid accumulation score,[2],inactive: 0.588
CCCCCC(O)C=CC1CC2CC(C1CC=CCCCC(=O)O)C2(C)C [15(R)-Pinane Thromboxane A2],scaled lipid accumulation score,[7],inactive: ≤ 0
O=C(O)CC1CC(c2ccccc2)=NO1 (configuration not stated),scaled lipid accumulation score,[6],inactive: ≤ -0.009
same,scaled lipid accumulation score,[2],inactive: ≤ 0
CN(C)[C@@H]1C(O)=C(C(N)=O)C(=O)[C@@]2(O)C(O)=C3C(=O)c4c(O)ccc(Cl)c4[C@@H](O)[C@H]3C[C@@H]12 [Demeclocycline],scaled lipid accumulation score,[2],inactive: ≤ 0
CN(C)[C@@H]1C(O)=C(C(N)=O)C(=O)[C@@]2(O)C(O)=C3C(=O)c4c(O)ccc(Cl)c4[C@@H](O)[C@H]3C[C@@H]12 [Demeclocycline hydrochloride],scaled lipid accumulation score,,inactive: ≤ 0
same,scaled lipid accumulation score,[8],inactive: ≤ -0.001
same,scaled lipid accumulation score,[2],inactive: ≤ 0
O=C(O)/C(=C\c1c(C(=O)O)[nH]c2cc(Cl)cc(Cl)c12)c1ccccc1,scaled lipid accumulation score,[2],inactive: 0.017
O=C1c2ccccc2S(=O)(=O)N1CCCCN1CCN(c2ncccn2)CC1 [Ipsapirone],scaled lipid accumulation score,[2],inactive: 0.014
Cn1c([N+](=O)[O-])cnc1COC(N)=O [Ronidazole],scaled lipid accumulation score,,inactive: ≤ 0
same,scaled lipid accumulation score,[6],inactive: ≤ 0
same,scaled lipid accumulation score,[2],inactive: ≤ -0.001 and inactive: 0.008
COC(=O)c1ccc(O)c2nc3c(C=O)c(O)cc(O)c3nc12 [Lomofungin],scaled lipid accumulation score,library stock concentration: 6.4 mM,inactive: ≤ -0.006
NC(N)=O,scaled lipid accumulation score,[2],inactive: ≤ 0
same,scaled lipid accumulation score,library stock concentration: 33.3 mM,inactive: ≤ 0
CCN(c1cc(-c2ccc(CN3CCOCC3)cc2)cc(C(=O)NCc2c(C)cc(C)[nH]c2=O)c1C)C1CCOCC1,scaled lipid accumulation score,[6],inactive: ≤ -0.009
same,scaled lipid accumulation score,[2],inactive: 0.14
CCCCC[C@H](O)/C=C/[C@H]1[C@H](O)CC(=O)[C@@H]1C/C=C/CCCC(=O)O [5-trans Prostaglandin E2],scaled lipid accumulation score,[7],inactive: ≤ 0
c1ccc2nc(C3=NCCN3)cnc2c1 [BU 239 hydrochloride],scaled lipid accumulation score,[2],inactive: ≤ 0
CN(CCOc1ccc(CC2SC(=O)NC2=O)cc1)c1ccccn1 (configuration not stated) [Rosiglitazone (potassium salt)],scaled lipid accumulation score,[7],inactive: 0.04
CN(CCOc1ccc(CC2SC(=O)NC2=O)cc1)c1ccccn1 (configuration not stated) [Rosiglitazone],scaled lipid accumulation score,[7],inactive: 0.047
same,scaled lipid accumulation score,[6],inactive: 0.03
same,scaled lipid accumulation score,[2],inactive: ≤ 0 and inactive: ≤ -0.027
CN(CCOc1ccc(CC2SC(=O)NC2=O)cc1)c1ccccn1 (configuration not stated),scaled lipid accumulation score,[2],inactive: ≤ 0
CCC(=O)OCC(=O)[C@@]1(OC(=O)CC)[C@H](C)C[C@H]2[C@H]3[C@H]([C@@H](O)C[C@@]21C)[C@@]1(C)C=CC(=O)C=C1C[C@H]3Cl [Alclometasone dipropionate],scaled lipid accumulation score,,inactive: ≤ 0
C[n+]1cc2c3c(ccc2c2ccc4cc5c(cc4c21)OCO5)OCO3 [Sanguinarine],scaled lipid accumulation score,,active: 0.869
C[C@H]1C[C@@H]2[C@H]([C@@H](O)C[C@@]3(C)[C@H]2CC[C@]3(O)C(=O)COC(=O)CCC(=O)O)[C@@]2(C)C=CC(=O)C=C12 [Methylprednisolone sodium succinate],scaled lipid accumulation score,[8],inactive: 0.015
Fc1cc(-c2cccc3ncc(-c4cnn(C5CCNCC5)c4)nc23)cc(F)c1CN1CCOCC1,scaled lipid accumulation score,[6],inactive: 0.784
same,scaled lipid accumulation score,[2],inactive: 0.433
COC(=O)/C=C/C(=O)N(O)CCCCNCc1ccc(COC(=O)Nc2cccc3ccccc23)cc1 [Methylstat],scaled lipid accumulation score,[3],inactive: ≤ 0
same,scaled lipid accumulation score,[4],inactive: ≤ 0
same,scaled lipid accumulation score,[5],inactive: ≤ 0
same,scaled lipid accumulation score,[2],inactive: 0.26
COc1ccc(C[C@@H]2c3cc(OC)c(OC)cc3CC[N@+]2(C)CCC(=O)OCCCCCOC(=O)CC[N@@+]2(C)CCc3cc(OC)c(OC)cc3[C@H]2Cc2ccc(OC)c(OC)c2)cc1OC [Cisatracurium Besylate],scaled lipid accumulation score,[6],inactive: ≤ 0
same,scaled lipid accumulation score,[2],inactive: ≤ 0
Nc1cc(-c2ccncc2)c[nH]c1=O [Amrinone],scaled lipid accumulation score,,inactive: ≤ 0
Nc1cc(-c2ccncc2)c[nH]c1=O,scaled lipid accumulation score,[2],inactive: ≤ 0
CCOC(=O)c1c(C)n(C)c2ccc(O)cc12 [Mecarbinate],scaled lipid accumulation score,[6],inactive: ≤ 0
same,scaled lipid accumulation score,[2],inactive: 0.009
CS(=O)(=O)Nc1ccc([N+](=O)[O-])cc1OC1CCCCC1,scaled lipid accumulation score,[7],inactive: ≤ 0
CC(N)C12CC3CC(CC(C3)C1)C2 (configuration not stated) [Rimantadine],scaled lipid accumulation score,[6],inactive: ≤ 0
same,scaled lipid accumulation score,[2],inactive: 0.113
CC(N)C12CC3CC(CC(C3)C1)C2 (configuration not stated) [Rimantadine hydrochloride],scaled lipid accumulation score,library stock concentration: 9.3 mM,inactive: 0.404
COc1cc(Nc2ncc(F)c(Nc3ccc4c(n3)NC(=O)C(C)(C)O4)n2)cc(OC)c1OC [R406 (free base)],scaled lipid accumulation score,[6],active: 0.918
same,scaled lipid accumulation score,[2],active: 1.16
COC(=O)C(N)CS (configuration not stated) [Mecysteine hydrochloride],scaled lipid accumulation score,[2],inactive: ≤ 0
CCCCCCCCCCCCCCCC(=O)NCCc1ccc(O)c(O)c1 [N-Palmitoyl Dopamine],scaled lipid accumulation score,[7],inactive: ≤ 0
CSc1nc(-c2ccnc(NC(C)c3ccccc3)c2)c(-c2ccc(F)cc2)[nH]1 (configuration not stated) [p38 MAP Kinase Inhibitor III],scaled lipid accumulation score,[6],inactive: ≤ 0
Brc1c(NC2=NCCN2)ccc2nccnc12,scaled lipid accumulation score,[2],inactive: ≤ 0 and inactive: 0.02
Brc1c(NC2=NCCN2)ccc2nccnc12 [Brimonidine Tartrate],scaled lipid accumulation score,[6],inactive: ≤ 0
same,scaled lipid accumulation score,[2],inactive: ≤ -0.001
"Brc1c(NC2=NCCN2)ccc2nccnc12 [UK 14,304 tartrate]",scaled lipid accumulation score,[2],inactive: ≤ -0.001
CN(C)CCOC(=O)COc1ccc(Cl)cc1 [Centrophenoxine hydrochloride],scaled lipid accumulation score,[2],inactive: 0.032
CN(C)CCOC(=O)COc1ccc(Cl)cc1 [Meclofenoxate (Centrophenoxine) HCl],scaled lipid accumulation score,[6],inactive: ≤ 0
same,scaled lipid accumulation score,[2],inactive: 0.043
CN(C)CCOC(=O)COc1ccc(Cl)cc1 [Meclofenoxate hydrochloride],scaled lipid accumulation score,,inactive: ≤ 0
same,scaled lipid accumulation score,[2],inactive: ≤ -0.027
N#C/C(=C\c1ccc(O)c(O)c1)C(=O)NCCCNC(=O)/C(C#N)=C/c1ccc(O)c(O)c1 [Tyrphostin AG 537],scaled lipid accumulation score,[2],inactive: ≤ 0
O=C(OCc1ccccc1)c1ccccc1 [Benzyl benzoate],scaled lipid accumulation score,library stock concentration: 9.4 mM,inactive: ≤ 0
same,scaled lipid accumulation score,[2],inactive: 0.008
CCCc1nc(C(C)(C)O)c(C(=O)O)n1Cc1ccc(-c2ccccc2-c2nnn[nH]2)cc1 [Olmesartan],scaled lipid accumulation score,library stock concentration: 3.6 mM,inactive: 0.042
C(=C/CCNC)(/c1c(cccc1)CC2)\c3c2cccc3 [Nortriptyline],scaled lipid accumulation score,library stock concentration: 7.6 mM,active: 0.971
O=C(O)/C=C\C(=O)O.O=C(O)/C=C\C(=O)O.c1cc(CN2CCCCC2)cc(OCCCNc2nc3ccccc3s2)c1,scaled lipid accumulation score,[2],active: 1.03
N[C@H](C(=O)O)[C@H](OCc1ccccc1)C(=O)O (racemic),scaled lipid accumulation score,[2],inactive: ≤ -0.006
Cc1ccc2c(Cl)cc(Cl)c(O)c2n1 [Chlorquinaldol],scaled lipid accumulation score,[6],inactive: ≤ 0
same,scaled lipid accumulation score,[2],inactive: 0.307
Cc1ccc2c(Cl)cc(Cl)c(O)c2n1,scaled lipid accumulation score,[2],inactive: ≤ 0
OC(CCN1CCCCC1)(c1ccccc1)C1CCCCC1 (configuration not stated) [Trihexyphenidyl hydrochloride],scaled lipid accumulation score,library stock concentration: 5.9 mM,inactive: 0.376
same,scaled lipid accumulation score,[2],inactive: 0.008 and inactive: 0.478
"OC(CCN1CCCCC1)(c1ccccc1)C1CCCCC1 (configuration not stated) [Trihexyphenidyl-D,L Hydrochloride]",scaled lipid accumulation score,,inactive: 0.42
COc1ccc2[nH]c([S+]([O-])Cc3ncc(C)c(OC)c3C)nc2c1 (configuration not stated),scaled lipid accumulation score,[2],inactive: ≤ 0
COc1ccc2[nH]c([S+]([O-])Cc3ncc(C)c(OC)c3C)nc2c1 (configuration not stated) [Omeprazole],scaled lipid accumulation score,,inactive: ≤ 0
same,scaled lipid accumulation score,[6],inactive: 0.017
same,scaled lipid accumulation score,[1],inactive: ≤ 0
same,scaled lipid accumulation score,[2],inactive: ≤ 0 and inactive: ≤ -0.001
COC(=O)C(C)c1ccc(C(=O)c2cccs2)cc1 (configuration not stated) [Suprofen methyl ester],scaled lipid accumulation score,[2],inactive: ≤ 0
CCCCC[C@H](O)/C=C/[C@H]1C(=O)C[C@H](O)[C@@H]1C/C=C\CCCC(=O)O [Prostaglandin D2],scaled lipid accumulation score,[7],inactive: ≤ 0
CCCCC[C@H](O)/C=C/[C@H]1C(=O)C[C@H](O)[C@@H]1C/C=C\CCCC(=O)O [Prostaglandin  D2],scaled lipid accumulation score,[7],inactive: ≤ -0.021
COc1cc(OC)c(C(=O)CCCCN2CCC3(CC2)NC(=O)NC3=O)cc1NS(=O)(=O)c1ccc(C(F)(F)F)cc1.Cl,scaled lipid accumulation score,[2],active: 0.941
NC(=S)N/N=C/c1ncccc1N [Triapine],scaled lipid accumulation score,[6],inactive: ≤ -0.009
same,scaled lipid accumulation score,[2],inactive: ≤ 0
O=C(O)CCC/C=C\C[C@H]1[C@@H](O)CC(=O)[C@@H]1/C=C/[C@@H](O)CCc1ccccc1 [17-phenyl trinor Prostaglandin D2],scaled lipid accumulation score,[7],inactive: ≤ 0
CC(=O)Nc1ccc(O)cc1 [Acetaminophen],scaled lipid accumulation score,,inactive: ≤ 0
same,scaled lipid accumulation score,[2],inactive: ≤ 0 and inactive: ≤ -0.006
same,scaled lipid accumulation score,library stock concentration: 13.2 mM,inactive: ≤ -0.001
CC(=O)Oc1c(C)c(C)c2c(c1C)CCC(C)(CCCC(C)CCCC(C)CCCC(C)C)O2 (stereo not drawn) [Alpha-tochopheryl acetate],scaled lipid accumulation score,[2],inactive: 0.117
